In the supplement of paper PMC8728848:
The other results are listed elsewhere or left out.

Assays:
Assay in all cases: glycan array binding signal (z-score within array); higher = stronger binding
Conditions in all cases: glycan notation: IUPAC condensed, linker removed
GalNAc(b1-4)GlcNAc = biological target: GalNAc(b1-4)GlcNAc
Procedure, shortened: (§1)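 The binding signal is a Z-score computed within each array. Data were drawn from 3228 arrays in the Consortium for Functional Glycomics database, restricted to those with a known protein sequence. Scores were averaged over arrays of the same protein sequence at different concentrations or buffers, and over linkers, and negative values can be taken as non-binding.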

[1] = biological target: GalNAc(b1-4)GlcNAc(b1-2)Man
Procedure, shortened: as §1

[2] = biological target: GalNAc(b1-4)GlcNAc(b1-2)Man(a1-3)[GalNAc(b1-4)GlcNAc(b1-2)Man(a1-6)]Man(b1-4)GlcNAc(b1-4)GlcNAc
Procedure, shortened: as §1

[3] = biological target: GalNAc(b1-4)GlcNAc(b1-3)GalNAc(b1-4)GlcNAc
Procedure, shortened: as §1

GalNAc(b1-4)GlcNAc6S = biological target: GalNAc(b1-4)GlcNAc6S
Procedure, shortened: as §1

GalNAc(b1-6)GalNAc = biological target: GalNAc(b1-6)GalNAc
Procedure, shortened: as §1

GalNAc3S(b1-4)GlcNAc = biological target: GalNAc3S(b1-4)GlcNAc
Procedure, shortened: as §1

GalNAc3S(b1-4)GlcNAc3S = biological target: GalNAc3S(b1-4)GlcNAc3S
Procedure, shortened: as §1

[4] = biological target: GalNAc3S(b1-4)[Fuc(a1-3)]GlcNAc
Procedure, shortened: as §1

GalNAc4S6S(b1-4)GlcNAc = biological target: GalNAc4S6S(b1-4)GlcNAc
Procedure, shortened: as §1

GalNAc6S(b1-4)GlcNAc = biological target: GalNAc6S(b1-4)GlcNAc
Procedure, shortened: as §1

Glc(a1-4)Glc = biological target: Glc(a1-4)Glc
Procedure, shortened: as §1

[5] = biological target: Glc(a1-4)Glc(a1-4)Glc(a1-4)Glc
Procedure, shortened: as §1

Glc(a1-6)Glc(a1-6)Glc = biological target: Glc(a1-6)Glc(a1-6)Glc
Procedure, shortened: as §1

[6] = biological target: Glc(a1-6)Glc(a1-6)Glc(a1-6)Glc
Procedure, shortened: as §1

Glc(b1-4)Glc = biological target: Glc(b1-4)Glc
Procedure, shortened: as §1

Glc(b1-6)Glc = biological target: Glc(b1-6)Glc
Procedure, shortened: as §1

GlcA(b1-3)Gal = biological target: GlcA(b1-3)Gal
Procedure, shortened: as §1

GlcA(b1-3)GlcNAc = biological target: GlcA(b1-3)GlcNAc
Procedure, shortened: as §1

GlcA(b1-6)Gal = biological target: GlcA(b1-6)Gal
Procedure, shortened: as §1

[7] = biological target: GlcA3S(b1-3)Gal(b1-4)GlcNAc(b1-2)Man
Procedure, shortened: as §1

[8] = biological target: GlcA3S(b1-3)Gal(b1-4)GlcNAc(b1-3)Gal(b1-4)Glc
Procedure, shortened: as §1

[9] = biological target: GlcNAc(a1-3)Gal(b1-4)GlcNAc
Procedure, shortened: as §1

[10] = biological target: GlcNAc(a1-4)Gal(b1-3)GlcNAc
Procedure, shortened: as §1

[11] = biological target: GlcNAc(a1-4)Gal(b1-4)GalNAc
Procedure, shortened: as §1

[12] = biological target: GlcNAc(a1-4)Gal(b1-4)GlcNAc
Procedure, shortened: as §1

[13] = biological target: GlcNAc(a1-4)Gal(b1-4)GlcNAc(b1-3)Gal(b1-4)Glc
Procedure, shortened: as §1

[14] = biological target: GlcNAc(a1-4)Gal(b1-4)GlcNAc(b1-3)Gal(b1-4)GlcNAc
Procedure, shortened: as §1

[15] = biological target: GlcNAc(a1-4)Gal(b1-4)GlcNAc(b1-3)Gal(b1-4)GlcNAc(b1-3)Gal(b1-4)GlcNAc
Procedure, shortened: as §1

[16] = biological target: GlcNAc(a1-4)Gal(b1-4)GlcNAc(b1-3)Gal(b1-4)[Fuc(a1-3)]GlcNAc(b1-3)Gal(b1-4)[Fuc(a1-3)]GlcNAc
Procedure, shortened: as §1

B1: a L Fucosidase (Streptosporangium roseum), D2B1P1_STRRD (protein)
chain: MRRKLLLVPAVGLLVIGSIFATQPVASADTPPVYEPTVESLNSHPVPQWFNDDKFGIFIHWGAYSVPAWGPRGSYAEWYGNYMNAGGSATNAHHKATYGQDFNYDAFLQQWKAEKFDPADWVKLFKDAGAKYFVLTSKHHEGMALWDSKSSGRDSVDLGPGRDLAKELFDAARKDEAKLKAGFYYSLYEWYNPAYTGRPATNPYTGAEIPYTGAPGGGDYVKDYMLPQMRELIDGYDPDIIWCDGQWEKPASYWNTAGVIADYYNKALNSGKEVAVANRCKIQSGNLDSPELDFQTPEYTVKPDIDPVKWESSRGIAHSYGYNQNEPEEDHLTSDQLVDSLVDIVSKNGNLLLDIGPKADGTIPEIQRQRLLDIGAWLKANGEAIYGTTYWNRAEEKGGPDDVRYTAKDATLYATALKWPGEQLTLGADLPVDHSTRITMLGSGARLSWSRDEQGRVVVNTPQEAGKHAYVFKIETPGVRSLLRTSSSLAKEIAPGRTISGELTVTNPGKRHTPATKLSLTVPQGWTATLGAPRVRPLGPGESVKVPISVSAPEGVAPAPYTLGLYQRTGRMGTTTALPLTVNRPNLSLGKPATQKSTGYDAPASRAVDGNTGGDWSAGSTTHTAEPEKQAWWQVDLGASARLDSVDVWNRLDCCADRLKDFWVMASDQPFTTDDLDQARTAPGVTAVHVGEQAGSPSKVKLPEGTRGRYVRIQLASPSNPLSLAEVQVRGSMARPNLSLGKPATQKSTGYDAPASRAVDGNTGGDWSAGSTTHTAEPEKQAWWQVDLGASARLDSVDVWNRLDCCADRLKDFWVMASDQPFTTDDLDQARTAPGVTAVHVGEQAGSPSKVKLPEGTRGRYVRIQLASPSNPLSLAEVQVRLEHHHHHHS
glycan array binding signal (z-score) (GalNAc(b1-4)GlcNAc): -0.528
glycan array binding signal (z-score) [1]: -0.597
glycan array binding signal (z-score) [2]: -0.34
glycan array binding signal (z-score) [3]: -0.14
glycan array binding signal (z-score) (GalNAc(b1-4)GlcNAc6S): -0.397
glycan array binding signal (z-score) (GalNAc(b1-6)GalNAc): -0.589
glycan array binding signal (z-score) (GalNAc3S(b1-4)GlcNAc): -0.625
glycan array binding signal (z-score) (GalNAc3S(b1-4)GlcNAc3S): -0.585
glycan array binding signal (z-score) [4]: -0.535
glycan array binding signal (z-score) (GalNAc4S6S(b1-4)GlcNAc): 0.129
glycan array binding signal (z-score) (GalNAc6S(b1-4)GlcNAc): -0.617
glycan array binding signal (z-score) (Glc(a1-4)Glc): -0.488
glycan array binding signal (z-score) [5]: -0.468
glycan array binding signal (z-score) (Glc(a1-6)Glc(a1-6)Glc): -0.263
glycan array binding signal (z-score) [6]: -0.415
glycan array binding signal (z-score) (Glc(b1-4)Glc): -0.301
glycan array binding signal (z-score) (Glc(b1-6)Glc): 0.05
glycan array binding signal (z-score) (GlcA(b1-3)Gal): -0.445
glycan array binding signal (z-score) (GlcA(b1-3)GlcNAc): -0.107
glycan array binding signal (z-score) (GlcA(b1-6)Gal): -0.444
glycan array binding signal (z-score) [7]: -0.417
glycan array binding signal (z-score) [8]: -0.319
glycan array binding signal (z-score) [9]: -0.487
glycan array binding signal (z-score) [10]: -0.526
glycan array binding signal (z-score) [11]: -0.409
glycan array binding signal (z-score) [12]: -0.493
glycan array binding signal (z-score) [13]: -0.451
glycan array binding signal (z-score) [14]: -0.405
glycan array binding signal (z-score) [15]: -0.462
glycan array binding signal (z-score) [16]: -0.182
